From PubChem BioAssay AID1963576 (National Center for Advancing Translational Sciences (NCATS), 2024)
Screen size: about 46,000 compounds; about 60 (0.1%) were called active. About 3% were inconclusive and are not listed. Calls follow the shape of the dose curve; as a rule, active = well fitted inhibition curve with a large enough effect; inconclusive = small, poorly fitted or top-dose-only effect; inactive = no such curve, though single readings can be large or run the other way. The list shows a part of the results.

Assay: Primary qHTS assay for Inhibitors of ovarian cancer metastasis using an organotypic tumor microenvironment (TME) model. Also: nearly all actives have a fitted effect of over 65% in size.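 As to activity change, negative = inhibition: plate controls were DMSO wells for no effect and tomatine positive control wells for full effect.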
Conditions: SKOV3ip1-GFP adhesion/invasion on 3D omental model, fluorescence; series mostly up to 45.8 µM; activity change, negative = inhibition: at the top concentration
In short: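 A 3D layer of primary human omental fibroblasts, mesothelial cells, fibronectin and collagen I, grown 48 hr, received SKOV3ip1-GFP cells in serum-free medium plus compounds at 0.36-46 umol/L. After 2 hr RT and 16 hr 37 C, fixed adherent GFP cells were counted; normalized to DMSO and tomatine.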

Activity change, negative = inhibition, inactive:
O=C(COc1ccc(F)cc1)NC1CC(=O)N(c2ccc3c(c2)OCCO3)C1 (stereo unspecified) 5.54%
CCOC(=O)c1c(C)[nH]c(C)c1S(=O)(=O)N1CCN(c2ccc(Cl)cc2)CC1 9.58%
CC(=O)N1c2ccc(S(=O)(=O)NCC3CCC(C(=O)Nc4ccc(F)cc4)CC3)cc2CC1C (stereo unspecified) -2.62%
CCc1ccccc1-n1c2c(cc(-c3nc(-c4ccc(Cl)cc4)cs3)c1=O)C(=O)CC(C)(C)C2 -3.03%
COc1ccc(Cc2nc3ccc(C(=O)NCCc4ccccc4)cc3o2)cc1 -8.54%
CC(=O)Nc1ccc(NC(=O)Cn2c(=O)ccc3cc(S(=O)(=O)N4CCC(C)CC4)ccc32)cc1 -22.5%
CC(NC(=O)C1=Cc2ccccc2OC1)c1ccccc1 (stereo unspecified) 1.3%
COc1cc2nc(SCC(=O)Nc3cccc(C)c3)n3nc(CCn4c(C)nc5ccccc54)nc3c2cc1OC 3.34%
CCOc1ccc(OCC)c(NS(=O)(=O)c2ccc3[nH]c(=O)ccc3c2)c1 -2.27%
COC[C@@H](c1ccc(C(F)(F)F)cc1)N1CCN(C2(C)CCN(C(=O)c3c(C)ncnc3C)CC2)C[C@H]1C 0.598%
CCOc1ccc(NC(=O)CN(C)S(=O)(=O)c2ccc3[nH]c4c(c3c2)CCCC4)cc1 5.82%
COc1ccc(C(=O)N2CCN(c3nc4c(C)c(Cl)ccc4s3)CC2)c(OC)c1 -3.42%
CCC(C(=O)NCCc1ccc(Cl)cc1)n1ccc2cc(S(=O)(=O)N3CCCCC3)ccc21 (stereo unspecified) -11.2%
COc1ccc(CCNC(=O)C(=O)NCC(c2cccnc2)N2CCN(c3ccccc3)CC2)cc1 (stereo unspecified) 2.97%
CCc1ccc(CNC(=O)c2ccc(CS(=O)(=O)Cc3cccc(C)c3)o2)cc1 4.19%
O=C(NCc1ccc(Cl)cc1)c1ccc2c(c1)N(Cc1ccccc1F)C(=O)c1ccccc1S2=O (stereo unspecified) 6.01%
Cc1ccc(NC(=O)Cn2c(=O)ccc3cc(S(=O)(=O)N4CCCC4)ccc32)cc1N(C)C -12.1%
O=C(c1ccc(Cl)cc1)c1cn(Cc2ccccc2)c2cc3c(cc2c1=O)OCCO3 -0.887%
Cc1cc(C(=O)Nc2cccc(C)c2C)c2c(C)nn(-c3cccc(F)c3)c2n1 7.34%
COc1ccc(N(C)C(=O)c2cc3c(s2)-c2ccccc2OC3)cc1 -12.6%
CCCCNc1nc2c(c(=O)n(Cc3ccccc3)c(=O)n2C)n1C 13.2%
Cc1ccc(NC(=O)C2CCCN(S(=O)(=O)c3ccc4c(c3)CCCC(=O)N4)C2)cc1Cl (stereo unspecified) -9.46%
COc1cccc(-c2ccc3c(N)c(C(=O)Nc4ccccc4C)sc3n2)c1 -27.4%
COc1cccc(NC(=O)CCN2CCN(CCO)CC2)c1 1.41%
CCCCNC(=O)c1ccc2c(c1)NC(=O)C(CS(=O)(=O)Cc1ccc(F)cc1Cl)N2 (stereo unspecified) 2.36%
O=C(NCc1ccco1)c1ccc2c(c1)N(Cc1ccccc1F)C(=O)c1ccccc1S2(=O)=O 6.39%
CCn1c(=O)cc(SCC(=O)NCc2ccc(C)cc2)c2ccccc21 -10.1%
CC(=O)Nc1ccc(S(=O)(=O)N(Cc2ccccc2)Cc2ccccc2)cc1 9.12%
Nc1ccc2oc(Cc3ccc(Cl)cc3)nc2c1 -9.21%
CCCC(=O)Nc1ccc2nc(SCc3ccc(C)cc3)sc2c1 -2.98%
CC(C)CCNC(=O)c1ccc2c(c1)nc1n2CCCCC1 -3.26%
CC(=O)[C@H]1CC[C@H]2[C@@H]3CCC4=CC(=O)CC[C@]4(C)[C@H]3CC[C@]12C -1.92%
Cc1ccc(CCNC(=O)c2cc3c(=O)n(C)c4ccccc4c3n2C)cc1 -6.72%
Cc1cccc(N2CCN(c3nc4ccccc4c4nc(-c5cccnc5)nn34)CC2)c1C 3.18%
Cn1cc(CNCC2CCN(c3ncc(C(=O)NO)cn3)CC2)c2ccccc21 14.7%
Cc1cccc(OCC(=O)Nc2ccccc2C(=O)OCc2cc(=O)n3nc(C4CC4)sc3n2)c1 4.75%
Cc1cccc(-n2cnc3cc(C(=O)NC4CCCCCC4)ccc32)c1 -7.75%
CC(C)CCn1c(=O)c2sccc2n2c(CCCC(=O)NC(C)c3ccccc3)nnc12 (stereo unspecified) -0.463%
CC(=O)c1cccc(NC(=O)CSc2nc3c(=O)n(C)c(=O)n(C)c3n2C)c1 -28.5%
CCOC(=O)c1ccc(NC(=O)c2c(NCc3cc(OC)ccc3OC)sc3c2CCC3)cc1 -0.653%
CCc1cnc2c(c1SCCC(C)C)c(=O)n(C)c(=O)n2C -0.245%
CCc1cccc(N2C(=O)N(Cc3c(F)cccc3Cl)c3ccccc3S2(=O)=O)c1 -1.77%
Cc1ccc2cc3cc(C(=O)N(C)c4ccccc4C)oc3nc2c1 -12.2%
COc1ccc(C)cc1NC(=O)CN1CCN(S(=O)(=O)c2ccc(Br)cc2)CC1 -2.07%
Cc1oc2c(cc(NS(=O)(=O)c3ccc(F)cc3)c3ccccc32)c1C(=O)OCc1ccccc1 -21.1%
CC(=O)N1CCN(c2ccc(OC[C@H]3CO[C@](Cn4ccnc4)(c4ccc(Cl)cc4Cl)O3)cc2)CC1 9.92%
CC(=O)c1cc(-c2ccccc2)n(CC(=O)NCc2ccccc2C)c1C -6.08%
COC(=O)c1cc2sc(C)cc2n1CC(=O)Nc1ccc(C)cc1Cl -5.51%
Clc1ccccc1-c1nnc(-c2ccccc2CNc2ccccc2)o1 3.03%
FC(F)(F)c1ccc(C=Cc2nc(COc3ccc(CCCCn4ccnn4)cc3)co2)cc1 5.12%
COc1ccc(NC(=O)C2CCC(CNS(=O)(=O)c3cccs3)CC2)cc1OC (stereo unspecified) -1.83%

outcome, inactive:
COc1cccc(NC(=O)C2CCN(c3cc(C)nc4c(-c5ccc(Cl)cc5)c(C)nn34)CC2)c1
Cc1cc(-c2ccc(S(=O)(=O)Nc3cccc(Cl)c3C)cc2)on1
CCOc1ccccc1-c1nc(C(N)=O)c2c(n1)n(-c1ccc3c(c1)OCO3)c(=O)n2C
COc1ccc(C)cc1NC(=O)Cc1c(C(=O)O)c(C)cn1C
COCCNc1ccc(-c2nc(-c3ccccn3)no2)cc1[N+](=O)[O-]
CCn1cc(C(=O)Nc2ccc(C(C)C)cc2)c2cc(OC)c(OC)cc2c1=O
Cc1cccc(C)c1NC(=O)CN1C(=O)c2ccccc2Sc2ncccc21
COc1ccc(-c2noc(CSc3nnc(-c4ccccc4)n3C)n2)cc1
CCCOC(=O)c1ccc(Nc2c(C(=O)OCC)cnc3c(C)cc(Cl)cc23)cc1
CC(C)OCCCNC(=O)c1nn(C)c2c1CSc1ccccc1-2
